± gives the standard deviation of the averaged measurements. Whole data set: some 33,000 sequences, median “E-score (dimensionless, -0.5 to 0.5)” near -0.046, cut for the highest 2% near 0.36. This is one part of the list.

This experiment deals with T1, SpTbr T-box DNA-binding domain (GST fusion).
T1 sequence: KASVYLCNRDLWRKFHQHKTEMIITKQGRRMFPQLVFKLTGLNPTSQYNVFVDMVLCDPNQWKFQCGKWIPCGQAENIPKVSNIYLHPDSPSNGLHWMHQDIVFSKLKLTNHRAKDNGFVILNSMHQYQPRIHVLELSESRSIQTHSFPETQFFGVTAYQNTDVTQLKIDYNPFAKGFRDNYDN
As to the kind of experiment: PBM E-score of 8-mer (E-score (dimensionless, -0.5 to 0.5)); Tbr is Tbrain of the sea star Patiria miniata (Pm) or the sea urchin Strongylocentrotus purpuratus (Sp); higher = stronger binding preference; most listed sequences are background and not binding sites. To be noted: the construct has about 5 more residues each side. An outline of the steps:
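Universal Agilent oligonucleotide arrays, made double-stranded by primer extension, were incubated with 200 nM GST-fused Tbr T-box DNA-binding domain in PBS (pH 7.5). The protein was expressed in BL21 E. coli at 20 °C and purified by glutathione affinity chromatography. After scanning and quantification, the Universal PBM Analysis Suite assigned an enrichment E-score to each ungapped 8-mer, averaged over duplicate arrays.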
On to CGGAGGTA, for which the “PBM E-score of 8-mer” value was -0.208 ± 0.064. On to AGAGGTCG, for which the “PBM E-score of 8-mer” value was -0.0757 ± 0.0026. With AGCTTTTC the figure was 0.081 ± 0.038; with CTTGTAAC, 0.0776 ± 0.026; with AGGTTACG, -0.00206 ± 0.019. As to CTCGAGTA, the “PBM E-score of 8-mer” value is -0.0877 ± 0.0017. Take CCGCAGTA: the “PBM E-score of 8-mer” value is -0.0295 ± 0.032. Next, ACATTAGT: -0.133 ± 0.019; GTAAGCAA: -0.0379 ± 0.057; TACGAGGA: -0.291 ± 0.011. For the sequence AATACTTA, the “PBM E-score of 8-mer” value was -0.157 ± 0.063. For CTTTTGGC, the “PBM E-score of 8-mer” value worked out at 0.061 ± 0.046. Next, AATGCAAC: -0.174 ± 0.0024; ATACTTAA: -0.166 ± 0.048. With TAATTCGA the figure was -0.139 ± 0.015; with CTGACATC, -0.107 ± 0.031; with ATTTCAGC, -0.137 ± 0.099. For CAGTTTAA, the “PBM E-score of 8-mer” value was -0.00677 ± 0.046.

For the sequence ACCTGGGA, the “PBM E-score of 8-mer” value came to 0.136 ± 0.037. In the case of CAGGTGAC, the “PBM E-score of 8-mer” value was 0.425 ± 0.013.

For CGGTCCTC, the “PBM E-score of 8-mer” value is -0.145 ± 0.033. Next, CGAAACTA: -0.0459 ± 0.041; GGTCATGA: -0.323 ± 0.028; AGTGCAAT: 0.115 ± 0.002.

Regarding CCTCGCGC, the “PBM E-score of 8-mer” value was found to be 0.343 ± 0.032.

As for ATACCTGA, the “PBM E-score of 8-mer” value was -0.106 ± 0.078. Regarding CTCATAAA, the “PBM E-score of 8-mer” value is -0.187 ± 0.12.

Consider CCTAGACA, for which the “PBM E-score of 8-mer” value is -0.00551 ± 0.04. With CGATTTGC the figure was 0.178 ± 0.0076; with ATCTAGAG, 0.0228 ± 0.039. In the case of ATCTATGA, the “PBM E-score of 8-mer” value was -0.124 ± 0.091. With AGGCCCCG, the “PBM E-score of 8-mer” value was -0.336 ± 0.076. For AGAGCTCA, the “PBM E-score of 8-mer” value was -0.259 ± 0.015.

With ACCTCATA, the “PBM E-score of 8-mer” value amounted to 0.0747 ± 0.065. With ATGTGTAG the figure was 0.172 ± 0.033. In the case of CTCGTGTA, the “PBM E-score of 8-mer” value came to 0.104 ± 0.059. On to GCGATCGC, for which the “PBM E-score of 8-mer” value turned out to be 0.225 ± 0.084. As for GGAGGTAA, the “PBM E-score of 8-mer” value is -0.0439 ± 0.016. For GGCTTGAC, the “PBM E-score of 8-mer” value is -0.144 ± 0.0024. Regarding ACAATGAA, the “PBM E-score of 8-mer” value was determined as 0.0132 ± 0.019. With CGCTGTGA the figure was 0.18 ± 0.031. On to AGCCGGTA, for which the “PBM E-score of 8-mer” value was -0.204 ± 0.063.

For CCCCCCAG, the “PBM E-score of 8-mer” value was -0.252 ± 0.012. Consider GGGACAGA, for which the “PBM E-score of 8-mer” value is -0.0619 ± 0.054.

Turning to GATTACAA, the “PBM E-score of 8-mer” value was 0.0735 ± 0.066. In the case of ATTGGTCG, the “PBM E-score of 8-mer” value was -0.00924 ± 0.073. As to CGCGACGC, the “PBM E-score of 8-mer” value turned out to be 0.255 ± 0.012.

Regarding TCAAGCGA, the “PBM E-score of 8-mer” value is -0.118 ± 0.033.

Regarding CCGGCGCA, the “PBM E-score of 8-mer” value was -0.0724 ± 0.082.

For the sequence CAAGACAC, the “PBM E-score of 8-mer” value came out at 0.208 ± 0.0069. With CGTACTCA the figure was -0.0533 ± 0.076; with CTTGCAAG, 0.307 ± 0.067. On to ATAGCGTA, for which the “PBM E-score of 8-mer” value was -0.0756 ± 0.043. For ATATGTTA, the “PBM E-score of 8-mer” value is -0.0895 ± 0.045. In the case of TACCCTGA, the “PBM E-score of 8-mer” value is -0.0881 ± 0.033. Turning to CTGACGAC, the “PBM E-score of 8-mer” value is 0.113 ± 0.065. With ACAGCATC the figure was -0.105 ± 0.063. For AATGAGGA, the “PBM E-score of 8-mer” value is -0.334 ± 0.058. With ATTAATTG, the “PBM E-score of 8-mer” value was -0.0252 ± 0.042. As for ACGTTCCC, the “PBM E-score of 8-mer” value was -0.171 ± 0.095. As for CCAATAGC, the “PBM E-score of 8-mer” value is -0.00878 ± 0.043. As for CTGGACAG, the “PBM E-score of 8-mer” value came to 0.00212 ± 0.036. Next, ATGGGAAG: -0.151 ± 0.031. Next, AACTTGTG: 0.196 ± 0.018; AGAATCTA: -0.011 ± 0.1; CGTCCAAA: -0.0151 ± 0.0085.

In the case of AAACGATA, the “PBM E-score of 8-mer” value is -0.00843 ± 0.11. With ATTTTAGG the figure was -0.2408 ± 0.00085; with CGGAGGAC, -0.212 ± 0.039; with AACGGGTA, 0.126 ± 0.038. With AAAAGTAG the figure was -0.241 ± 0.038; with CACCGACA, 0.286 ± 0.031; with AGAGTGAG, 0.13 ± 0.016. For the sequence ACTTGTCA, the “PBM E-score of 8-mer” value was 0.4189 ± 0.00086. AGCAAGAC: the “PBM E-score of 8-mer” value was -0.162 ± 0.034. ACACGCCG: the “PBM E-score of 8-mer” value came out at 0.232 ± 0.0089. For the sequence GTGCCCGA, the “PBM E-score of 8-mer” value worked out at 0.0234 ± 0.045.

With AAGTACTG, the “PBM E-score of 8-mer” value was -0.169 ± 0.014. Take AAACACAA: the “PBM E-score of 8-mer” value worked out at 0.0536 ± 0.043.

For AGACGCGA, the “PBM E-score of 8-mer” value came to 0.078 ± 0.074. Take CTTGCGTA: the “PBM E-score of 8-mer” value was -0.0442 ± 0.028. With ACATCCCG the figure was 0.11 ± 0.014. Regarding GCAGAAAC, the “PBM E-score of 8-mer” value is -0.138 ± 0.0036.

On to AGATCGCG, for which the “PBM E-score of 8-mer” value stood at 0.316 ± 0.011. With AAGTTACG, the “PBM E-score of 8-mer” value is -0.151 ± 0.01. Regarding GACACGCA, the “PBM E-score of 8-mer” value was determined as 0.0676 ± 0.044.

Values taken from the supplement of paper PMC4166925.
